# Data from article PMC6451091.
# The list shows a part of the results. For part of these data: At the low end of the ranking, values are background and their order means little. For part of these data: Measured with an extract: partners may take part in the binding.
# Legend:
# Conditions in all cases: 20 mM HEPES pH 7.9, 100 mM NaCl, 1 mM DTT, 0.2 mg/mL BSA, 0.02% Triton X-100, 2% milk, 0.4 mg/mL salmon testes DNA; 1 h; temperature not stated; high values mean tight binding; double strand, one strand shown; sequences stand for … in GCCTAGCAC…GTGCTAGGTCTTGATTCGCTTGACGCTGCTG
# PU.1 (IVT) = PU.1 (IVT) (UniProt P17947); assay: protein-binding microarray (PBM)
# [1] = target: PU.1 (endogenous, THP-1 nuclear extract) (UniProt P17947); assay: nuclear extract protein-binding microarray (nextPBM)
# [2] = target: T1, FLI1 (endogenous, THP-1 nuclear extract) (UniProt Q01543); assay: as above
# T1 sequence: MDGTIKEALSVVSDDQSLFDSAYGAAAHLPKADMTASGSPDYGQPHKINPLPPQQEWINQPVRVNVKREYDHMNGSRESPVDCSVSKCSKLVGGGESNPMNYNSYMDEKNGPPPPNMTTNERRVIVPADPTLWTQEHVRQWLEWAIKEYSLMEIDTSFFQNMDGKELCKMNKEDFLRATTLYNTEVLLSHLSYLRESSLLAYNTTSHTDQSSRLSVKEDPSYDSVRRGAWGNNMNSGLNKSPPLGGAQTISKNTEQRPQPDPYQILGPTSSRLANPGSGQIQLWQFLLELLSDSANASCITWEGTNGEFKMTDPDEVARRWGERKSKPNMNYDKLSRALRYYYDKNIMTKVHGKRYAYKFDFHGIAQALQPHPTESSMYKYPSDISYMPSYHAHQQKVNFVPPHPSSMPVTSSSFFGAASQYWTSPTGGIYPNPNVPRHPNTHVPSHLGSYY
Sequence,binding signal (PU.1 (IVT)),binding signal [1],binding signal [2]
GAAAAAGGGAAGTGCAGTCA,6.71 z-score,6.96 z-score,2.54 z-score
AAATAGAGGAAGTGGAATGG,7.2 z-score,7.01 z-score,3.53 z-score
GGAATGGGGAAGTGGCATTT,6.73 z-score,6.65 z-score,2.68 z-score
AGAAAAAGGAAGTGGAATTT,6.29 z-score,6.7 z-score,3.28 z-score
GAAAACAGGAAGTCCCATAC,7.27 z-score,7.17 z-score,4.53 z-score
GGAAAGAGGAACTAGCAAAG,6.7 z-score,6.75 z-score,2.77 z-score
GTTTTGAGGAAGTGGGAAAA,6.51 z-score,6.49 z-score,3.21 z-score
AGGAGGAGGAAGTGGAGAAA,4.4 z-score,4.42 z-score,2.73 z-score
CAAAAAGGGAAATGGATGCT,3.74 z-score,3.12 z-score,1.63 z-score
ATTTTCAGGAAGTGGCAAAA,5.32 z-score,5.75 z-score,3.23 z-score
TTGAAAGGGAAGTGCTGTTA,3.74 z-score,3.56 z-score,2.14 z-score
TAAATGAGGAAATGACCACG,4.43 z-score,4.81 z-score,2.14 z-score
TAAAAAGGGAAGTGGATGCT,6.6 z-score,6.85 z-score,3.35 z-score
TGAAGAGGGAAGTGGGCAAG,3.11 z-score,3.45 z-score,1.69 z-score
TTAAACAGGAAGTGTGTAAT,5.79 z-score,5.72 z-score,5.13 z-score
ATAGAGAGGAAGTGATCCTG,4.66 z-score,4.63 z-score,2.95 z-score
TAAAAAAGGAACTGGCTAGA,3.1 z-score,3.08 z-score,1.24 z-score
ACAAAAAGCAACTGTGCCCC,-0.297 z-score,-1.2 z-score,-1.01 z-score
TGGAGAGGGAAGTGGGGCTT,2.84 z-score,2.94 z-score,1.35 z-score

Sequence,binding signal (PU.1 (IVT)),binding signal [1],binding signal [2]
CTGCTGAGGAAGTGATGTTT,3.13 z-score,2.77 z-score,2.24 z-score
AAGAAAAGGAAGTGGAAAAC,4.07 z-score,3.53 z-score,2.45 z-score
TAAATAGGGAAGTGGTTCAA,6.61 z-score,6.61 z-score,2.99 z-score
CACAAGAGGAAGTGCCTGCG,5.28 z-score,5.92 z-score,2.91 z-score
CCGAAGGGGAAGTCAGAAAG,4.35 z-score,4.33 z-score,1.87 z-score
AATAAGAGGAAGTCCCTATG,6.25 z-score,6.49 z-score,3.07 z-score
CTAATGAGGAACTGATGCGG,4.39 z-score,4.61 z-score,1.05 z-score
AGTTTAAGGAAGTGATTCTA,6.01 z-score,5.89 z-score,2.83 z-score
GAAATGGGGAAGTGAGACAG,6.75 z-score,6.77 z-score,3.11 z-score
AAGAAGAGGAAGTGATATTG,7.56 z-score,6.8 z-score,3.72 z-score
AGAGAGAGGAAGTACTGTGA,4.81 z-score,5.07 z-score,2.58 z-score
AGGAAGAGGAAGTGCTGGGG,6.11 z-score,6.55 z-score,3.72 z-score
GAAAACAGGAAGTCCAATAG,7.39 z-score,6.99 z-score,4.75 z-score
GAAAACAGGAAGTGGGCATT,7.54 z-score,7.16 z-score,5.65 z-score
GGAAACAGGAACTGTTAAAA,4.99 z-score,5.14 z-score,2.83 z-score
TGAATGAGGAAGTGGAGTTA,7.05 z-score,6.96 z-score,3.71 z-score
AAAATGAGGAAATGTCAAAA,5.05 z-score,4.56 z-score,2.02 z-score
GAAAAGAGGAAGTCCTCTGT,8.28 z-score,7.26 z-score,4.23 z-score
CATATGAGGAACTGATGCGG,3.75 z-score,4.03 z-score,0.547 z-score

Sequence,binding signal (PU.1 (IVT)),binding signal [1],binding signal [2]
AATAAGAGGAAGTAACGTGC,7.68 z-score,7.23 z-score,3.61 z-score
GGAAAGAGGAAGTGAGGAAA,7.77 z-score,7.25 z-score,3.96 z-score
CTATTGAGGAACTGCCTCTG,2.97 z-score,3.07 z-score,0.785 z-score
TGAGAGAGGAAGTCACTGGG,3.88 z-score,4.21 z-score,2.58 z-score
CGCAAGGGGAACTGGGATTT,1.96 z-score,2.68 z-score,1.24 z-score
GAGAACAGGAAGTCCCATAG,4.24 z-score,5.15 z-score,4.18 z-score
CCATGGAGGAACTGAGAGGG,1.46 z-score,1.88 z-score,0.576 z-score
AAAAAAAGGAACTGCCTAGA,4.37 z-score,4.14 z-score,1.42 z-score
CAAAGGGGGAAGTGCAACAC,5.07 z-score,5.11 z-score,2.12 z-score
AATAAAGGGAAGTGTGGTGA,5.01 z-score,5 z-score,1.83 z-score
CGAAAGGGGAATTGCTAAAC,1.84 z-score,1.54 z-score,0.073 z-score
GAGAAGGGGAAGTGTTCTCA,5.57 z-score,5.72 z-score,2.37 z-score
GATAAGAGGAAGTCCTCTCT,6.41 z-score,6.6 z-score,3.18 z-score
GCAAAGGGGAACTGGACTGT,3.71 z-score,3.71 z-score,1.23 z-score
ACAAAAAGGGACTGTGCCCC,-0.214 z-score,0.07 z-score,-0.864 z-score
AAAATGAGGAACTGAGCTGT,6.74 z-score,6.91 z-score,2.28 z-score
TCAGGGAGGAAGTGACATTT,4.03 z-score,4.15 z-score,3.12 z-score
TGTAAGAGGAAGTGCAACCA,5.84 z-score,6.32 z-score,3.38 z-score
TGAAGGAGGAAGTGCAACCA,4.71 z-score,5.68 z-score,3.01 z-score
